According to the supplement of paper PMC11417369:
± gives the standard deviation of the averaged measurements. The list shows a part of the results.

Test system: PfAP2-G AP2 domain (GST-tagged)
Test: gcPBM binding intensity (ln(normalized median fluorescence intensity)); higher = stronger DNA binding
Method in brief: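 Each value is the highest Masliner-normalised natural-log median intensity across replicate spots of either orientation of a probe. The probes were primer-extended double-stranded 36-bp intergenic genomic sequences on an Agilent 4 × 180k array, alongside negative controls, exposed for 1 h to GST-tagged P. falciparum DNA-binding domains expressed in E. coli. Bound protein was picked up with Alexa488 anti-GST antibody and scanned at 488 nm.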

Sequence | gcPBM binding intensity (ln)
AATACCCAAGGACACACACACACATATATATATATA [CACACA_site8345] | 10.9 ± 0.55
ATTAAAAAAGAATATACACACCAAAACTGTTTGTTA [CACACA_site4687] | 9.825 ± 0.021
TAAAAAAATTTAACATGTACAAATATTGAAAAGGAC [XGTACX_site7608] | 11.1 ± 0.47
GAAGAATAAATATGCACACATGCATATATTTTTACA [CACACA_site3459] | 9.88 ± 0.071
TTTATTATCTTATTCACACACATATATATATATATA [CACACA_site2869] | 10.3 ± 0.54
ATATATTTTTACCATACACACATATAACAAATATAT [CACACA_site7706] | 10.3 ± 0.16
AGAAAAAAAAAAAAAAAAAAAAAATTGAATATATAT [TGCATGCA_negctrl_site55] | 9.29 ± 0.12
TACAATTCGTAATACACACACATATATATATATATT [CACACA_site3751] | 9.93 ± 0.071
AGAGCATAATAAAACACACACATACATACCTATATA [CACACA_site6566] | 9.92 ± 0.057
AAAAAATATTGAAGTACACACATTATGAACTTTTTT [CACACA_site1733] | 11.6 ± 0.88
ATAAATAATTATAATTGTACACATATATATATATAC [XGTACX_site3998] | 11.4 ± 0.76
TTCCACATTTTACAGACACACACAATTTATATTACG [CACACA_site8572] | 10.2 ± 0.18
AAATATATATAAATGAGTACTTATGGTAACATATAT [XGTACX_site6362] | 11.4 ± 0.73
AATAAATTAATTTTGGGTACATATATATATATATAT [XGTACX_site3807] | 11.3 ± 0.91
TGTTTTTATAATATTAGTACATAATATACATAATTC [XGTACX_site2787] | 11.1 ± 0.85
GTAAGTTGTGCATTCACACACATATATATATATATA [CACACA_site3303] | 10.4 ± 0.55
TTTTGTTTCTATATAAGATGGAAATATAAACTTGTA [CACACA_negctrl_site82] | 9.95 ± 0.2
TTAAGATCCTAAAAAACACACAATTGTGAATAATAA [CACACA_site3872] | 10.2 ± 0.16
TATATATATATATATACATGCATATATATAATATAT [TGCATGCA_site763] | 9.91 ± 0.59
AATCCTTTACGACACACACACAAAAAAAAAAAAAAA [CACACA_site6449] | 10.2 ± 0.52
AATATTTTAATGCACACACACAAAAAAAAAAAAAAA [CACACA_site7374] | 10.2 ± 0.59
AAAGTAGAATATCCCCTACACACCCAAATAATTTAC [CACACA_site1255] | 10.26 ± 0.035

Sequence | gcPBM binding intensity (ln)
TTTTTCTTTCTTTCTTTTTTAATATTACAAATGTAT [XGTACX_negctrl_site267] | 10.2 ± 0.18
TTATTAAAACAAAATGTACACACATATAATTTAATG [CACACA_site8193] | 11.3 ± 0.73
TTCAATGCATGTCCATGTACATATAAAAAAAAATAC [XGTACX_site1597] | 11.4 ± 0.73
TGTTGGCAGGTGAATGCATGCATATAAGTCTATCTG [TGCATGCA_site781] | 9.86 ± 0.014
CACCCTTTACACAAGGTGCATACTTTATTATATTTT [GTGCAC_site9778] | 10.16 ± 0.078
AACCACATACCTATAACACACATATACAATATAGAT [CACACA_site7023] | 10.05 ± 0.071
ACATCATAGAAAAATTGATATATATATATATATATA [CACACA_negctrl_site130] | 9.84 ± 0.54
TCCACAAAGCATGTAACACACAACATATAAGACATA [CACACA_site972] | 10.1 ± 0.16
TATATATTTTATTTATGTACGAAAATAAATTAAATT [XGTACX_site3628] | 11.1 ± 0.79
TTAAAAAAATTAATATGTACATATATTTATATATAT [XGTACX_site5317] | 11.2 ± 0.7
TATTAAAAAGAGGTGACACACACATATAAATCTAAA [CACACA_site9243] | 10.2 ± 0.19
TTATTCTTTAACTAAAATTATATATATATATTATAC [CACACA_negctrl_site1597] | 9.845 ± 0.049
TTGTATGCTTCCCGACTACATTATGCCATAAATGTA [TGCATGCA_negctrl_site136] | 10 ± 0.11
TATTATATATATAGGTGTACGCATTTGTCCTTTATA [XGTACX_site1385] | 11.7 ± 1.1
AAACTTATGTTTACATGTACAGAACTTTATATTATG [XGTACX_site4843] | 11 ± 0.45
TCGAACATTAACATAACACACATATAGATTTATATA [CACACA_site7380] | 9.81 ± 0.028
ATTACATATGTGAGTTGTACTATAAATATATAATAT [XGTACX_site3718] | 11.1 ± 0.6
ATAACTTATTTTTAAAGTACATTATTATATATATAT [XGTACX_site1620] | 11.1 ± 0.69
ATTGTAATAAATTGTAGTACATGTAAGGTTTTATTT [XGTACX_site1005] | 11.6 ± 0.77
AATAAAAATATATCCACACACATATATAAATATGTA [CACACA_site6415] | 10 ± 0.25
ATGCTTTTTTATAAAAGTACATAAAGTTTTTACACT [XGTACX_site7307] | 11.3 ± 0.81
CTGCCTTCCATACCCACACACTTCCCATATATTTTA [CACACA_site5491] | 10.2 ± 0.21

Sequence | gcPBM binding intensity (ln)
ATTCTTTTATTTAGTAGTACATTTGTATTTTATTCA [XGTACX_site5790] | 11.5 ± 0.95
GATCCTGGTTCTTGTGGTACTTGTTCATTTGTTATA [XGTACX_site7164] | 11 ± 0.56
AAAACAAACATTACACGTACAAAACAAGTTATAGAC [XGTACX_site6320] | 11.4 ± 0.74
TTTTTGATATTAAAGGGTACATTATTTACAAAAAAA [XGTACX_site5284] | 11.2 ± 0.81
ACAAACAAAGAAAGAACACACATACACAAGATACCT [CACACA_site7353] | 10.1 ± 0.12
TGAATATTTTATGATTGTACATATTATAATAAACAT [XGTACX_site6113] | 11 ± 0.69
TTTTTTATTGTGAAACTGATATTATATTTTTTATAA [GTGCAC_negctrl_site559] | 9.635 ± 0.049
TAAAGTGTAAAATTCACACACATATAAATAAATATA [CACACA_site6765] | 9.95 ± 0.071
ATATATTTTATACATACACACATATATATATTTTTT [CACACA_site3940] | 9.98 ± 0.071
TGATTAAATCAAGAAAGTACAAAATGAAATATATAA [XGTACX_site4319] | 11 ± 0.63
AAAATAATTTTATAGTTGCACTATATCGTATACAAT | 10.14 ± 0.064
TTTTCATTAAGATACTTATAATAGTTTATTAGTAAA [CACACA_negctrl_site586] | 9.95 ± 0.15
TTACAAATATTATAATGTACCCATTTTTTTTGCCTT [XGTACX_site6612] | 11.3 ± 0.83
TTTAAAAAAAAAAATACACACATAAAAGTTTTCAAA [CACACA_site6471] | 9.815 ± 0.049
TACAAAAGCTATAACATTCACCACATTATAAAAATA [CACACA_negctrl_site1112] | 9.77 ± 0.057
AATTCAAAGAAAAACTGTACGTGTAGCAAACATCCT [XGTACX_site599] | 11.5 ± 0.93
TAATATGAAGATGGCAGTACTCTAGTCAATTTTTAC [XGTACX_site5375] | 10.7 ± 0.36
AAAATATATAAATATACATGCATAATTAATAGTATA [TGCATGCA_site804] | 9.8 ± 0.19
CTTTTTTTTTTTTTTTGTCCGTATGAGGGACCTATA [XGTACX_site8839] | 11.1 ± 0.86
ATATCATCTTCTCTATCATTTTTTTTTTTTTTTTTT [CACACA_negctrl_site1220] | 10.4 ± 0.27
TGAGATAAATGTGGTAGTACATTTTTTTTATATATA [XGTACX_site1918] | 11.4 ± 0.88
CAAAAATTACCCTTGTGTACACATATATTATATGTA [XGTACX_site1124] | 11.6 ± 0.91

Sequence | gcPBM binding intensity (ln)
ATAAAAAAATCAGACACACACACGTAAACACATACA [CACACA_site5529] | 10.3 ± 0.18
TTAATTATGTTTTGGTGTACAATAAATTGAATAGAT [XGTACX_site3306] | 11.6 ± 0.99
CTACTTAATATTTGTACACACATATTTAACCTACTA [CACACA_site5725] | 11.3 ± 0.78
ATATATATATATATATGTACATAATAATTTTATAAA [XGTACX_site5105] | 11.3 ± 0.73
AATAATAATAGAAACACACACACATTTTTAATAATA [CACACA_site1217] | 10.12 ± 0.057
ATGTTATAATTTAGTGTGCACATATTAAGAGGAACA | 10.6 ± 0.38
ATATATATTTATATATGTACATATTTTTGTGTATTT [XGTACX_site1183] | 11.3 ± 0.79
TATACTCATAAATACACACACATATATATATATATA [CACACA_site5822] | 10.1 ± 0.27
GGGGGCTTTTATAAAAGTACAAAATGAATAAAAATT [XGTACX_site2393] | 11.4 ± 0.97
TATACATACCCACCCACACACAAAAAAAAAAAAAAA [CACACA_site4632] | 10.3 ± 0.57
TATCTGTAAATGGACACACACATATATATATATATA [CACACA_site5926] | 10.9 ± 0.6
AAAATATAATATAATGCACACATAAAAAAAAAATCA [CACACA_site7922] | 10.1 ± 0.26
TCTTTATTATTCGCCACACACATATATATATATATA [CACACA_site3077] | 10.2 ± 0.17
TTTTAAAAAAAATAAAAAATAAACAATAATAAATAA [CACACA_negctrl_site721] | 9.8 ± 0.014
TATATATATAAAAATACACACATGAATGAATATATA [CACACA_site419] | 9.86 ± 0.042
AAAATATAATATAATGCACACATAAAAAAAAAAAAA [CACACA_site7989] | 9.89 ± 0.59
ATATATGTTCCTTTTACACACATAATCTTTTTTTTA [CACACA_site2661] | 10.24 ± 0.021
TTTTTAAAAATATACACACACAGATATTATATATAT [CACACA_site786] | 10.1 ± 0.28
ATATTGTGTTATAAATGTACACAATTTCCTTTCATA [XGTACX_site7481] | 11.3 ± 0.79
GTATCAATAAAAAACAGTACATATATAATATATTTA [XGTACX_site1083] | 10.8 ± 0.57
ATATATATATGTATGTATATATATATATATGTTTGA [GTGCAC_negctrl_site561] | 9.82 ± 0.3
AAAAAAAAGGAAATAACACACATGTATATATCTATA [CACACA_site6856] | 9.72 ± 0.35
